# Some of the results follow.
# B1: chr15:32969305:32969406:-|CDS|ENSG00000248905|unk|total|mutant (ssRNA)
# RNA: GGGAGUUCUACAGUCCGACGAUCCGAGCAUGCAAUGAUAACAGCGAGACCCGAAGAAACCAUUGAAAAUCUGAAACACGAGCCCGAACACAGAUGGCGAGGGGGUUGUGAAGAGAGGAAAGAUGUGUGCAUUUCCACCGAUGACAACAGAGGAUUGAGCAUCA
# B2: chr15:41900134:41900198:-|3pUTR|ENSG00000103966|msi1_unk|total|mutant (ssRNA)
# RNA: GGGAGUUCUACAGUCCGACGAUCAGGGCACCUGGAGGCAGCAAAGAUUAUCUUAUUUAUUUUAUUUUGUUUUCUGCUAUAUUCCGAGUGGCAAAAAAACCGAGCAGAGGGUUUCUGCUGUCUCCAGACUGUCUACCAAAGAGACAACAGAGGAUUGAGCAUCA
# B3: chr5:171410733:171410822:+|3pUTR|ENSG00000181163|msi1_unk|total|mutant (ssRNA)
# RNA: GGGAGUUCUACAGUCCGACGAUCGUUUUUAAAGAUGGAACUCCACCCUUUGCUUGGUUUUAAGUAUGUAUGGAAUGUUAUGACCGGACACCGCCGCCGCGGUGGUCAGACAUGGAAAUGGUGGGGAGACAAAAAUAUACAUGUCAACAGAGGAUUGAGCAUCA
# B4: chr8:123014585:123014686:-|3pUTR|ENSG00000136986|msi1|total|mutant (ssRNA)
# RNA: GGGAGUUCUACAGUCCGACGAUCGCAGCUAACAUGGGUCCGGUUUAAACCAUGGGGGAUGCAACCCCUUUGCGUUUCAUAUGCCGGCCUACUGGCUUUGUGCCGCUGGAGCCGUUGGGUUGCUUUGUGUCCGGAGGAUCCAGACAACAGAGGAUUGAGCAUCA
# B5: chr7:44573567:44573675:-|CDS|ENSG00000136271|unk|FALSE|unique (ssRNA)
# RNA: GGGAGUUCUACAGUCCGACGAUCCGCACGGGCUCCGGGAAGACGGCCGCUUAUGCUAUUCCGAUGCUGCAGCUGUUGCUCCAUAGGAAGGCGGUGGGUAACGAGAGAGCUGAGGGGAGGAAGGAGGCAAGCUCCAAAAGCCUGCAACAGAGGAUUGAGCAUCA
# B6: chr3:75729960:75730612:-|three_prime_utr|ENSG00000227124|control|control|control (ssRNA)
# RNA: GGGAGUUCUACAGUCCGACGAUCACUUCUGGCCAUCAUAUUGUUCUUUUAUUUUUCCAAAUUUCACAUCACCAGUAACAAACUAGCUGUGAUCAUGGCAGAUAGCCUGGAAAUAAAACUCCCCUUUUUACCCUUUGCACAGCACAACAGAGGAUUGAGCAUCA
# B7: chr1:155884367:155884468:+|3pUTR|ENSG00000132718|msi1|FALSE|unique (ssRNA)
# RNA: GGGAGUUCUACAGUCCGACGAUCUGGGUCUACUGAGCAGUGGGUGCUGAGGUGACAGGGGAGGAACCAGUUGUUCUGUAGCCUAGGAACUGCCUCAGUGUCUUUGCCAGAAAAAGGCAAAGAGGCGGACAGUGCAGGGCUCCUCAACAGAGGAUUGAGCAUCA
# B8: chr16:11872726:11872856:-|3pUTR|ENSG00000103342|msi1_unk|total|mutant (ssRNA)
# RNA: GGGAGUUCUACAGUCCGACGAUCACAUAAUUGCCUACAAUAAUGAAAACCUACAGGAAUUUUUUUAUUUUUCAUUUUCCCCUCCGGCAUAUUCCGUAUUUUUCCCCCAGGCAGAUCAUUCUGAGUGUGCGAGUGUGUGUGCACCAACAGAGGAUUGAGCAUCA
# B9: chr13:98915392:98915499:-|CDS|ENSG00000088387|unk|FALSE|unique (ssRNA)
# RNA: GGGAGUUCUACAGUCCGACGAUCUCAUUUCAGAACAACAAAGUCAGGCGUUUUGCUUUUGAGCUCAAGAUGCAGGACAAAAGUAGUUAUCUCUUGGCAGCAGACAGUGAAGUGGAAAUGGAAGAAUGGAUCACAAUUCUAAAUCAACAGAGGAUUGAGCAUCA
# B10: ENSG00000198589:be:win_3251|CDS|ENSG00000198589|bound_else_gene|NA|bound_elsewhere_windowed (ssRNA)
# RNA: GGGAGUUCUACAGUCCGACGAUCCUCCUUCAGAAGAGGAUGCCUCAGAGAUGCCAGAAUUCUUGGAUAAAUCUAUAGUAGAGGAAGAGGAAGAUGAUGAUUAUGUGGAACUGAAAGUAGAAGGCAGUCCUACUGAGGAAGCUACAACAGAGGAUUGAGCAUCA
# B11: chr11:119045269:119045370:-|3pUTR|ENSG00000149428|msi1|FALSE|unique (ssRNA)
# RNA: GGGAGUUCUACAGUCCGACGAUCUGUGGUUAAAAAUGGAAACUGUUCUCCUCCCCAGCCCCACUCCCUGUUCCCUACCCAUAUAGGCCCUAAAUUUGGGAAAAAUCACUAUUAAUUUCUGAAUCCUUUGCCUGUGGGUAGGAACAACAGAGGAUUGAGCAUCA
# B12: chr7:6691352:6691453:-|CDS|ENSG00000164631|unk|FALSE|bound_elsewhere (ssRNA)
# RNA: GGGAGUUCUACAGUCCGACGAUCUACGAAUGUAAUGAAUGUGGAAAGUUAUUCUCCCAGUUGUCAUACCUCACUAUCCAUCAUAGAACUCAUUCAGGAGUAAAACCCUAUGAAUGUAGUGAAUGUGGGAAAACCUUCUACCAGCAACAGAGGAUUGAGCAUCA
# B13: chr12:53253816:53253925:+|CDS|ENSG00000182544|unk|total|mutant (ssRNA)
# RNA: GGGAGUUCUACAGUCCGACGAUCUCUCUUCAUGUUGACUUUCUCUACCAGCCCAGGCCAGGAGAGUCCGGUGGAGUCCUUCACCGCCUUUCUACUUAUUGAGUUGGCUUGUGGAUUAUACUUUCCCAGCAUGAGCUUCCUACGCAACAGAGGAUUGAGCAUCA
# B14: chr12:24812577:24812678:-|3pUTR|ENSG00000060982|msi1|FALSE|unique (ssRNA)
# RNA: GGGAGUUCUACAGUCCGACGAUCAUCCAAAGGAGCUUUUUCCUUAUUCUGUCAAGCAUUGAGAUCUUCUUCAGCUUUCAAUGUAGUUGCUAAAUACAAAUAAUGCUACUAGGUAGUGACUAAAUAUAGCAAACACUUCAUCAGCAACAGAGGAUUGAGCAUCA
# B15: chr16:785952:786377:-|CDS|ENSG00000007376|control|control|control (ssRNA)
# RNA: GGGAGUUCUACAGUCCGACGAUCCAGUCGCUGGACCAGCUCGUGCAGGCCUUACGGGCCACCCCCGACCCUGACCCCGAGGAUAGGGGCCCCAGGCCAGGCAGCCCCUCCGCACUCCUGCCUGGGCCCGGCCGGCCUCCUCCACAACAGAGGAUUGAGCAUCA
# B16: chr9:37862824:37862925:+|3pUTR|ENSG00000122741|unk|FALSE|unique (ssRNA)
# RNA: GGGAGUUCUACAGUCCGACGAUCUAUGCACUAGCCUUGCCCUCUUAGGUUGCAUUCUCUUUAGGCCACUGGUUCUCAAACAUUAGGGUGCACUGUAACCAUUACAGAGCUUGUGAAAAGUGCAGAAACCUGAGCCUCACCUUACAACAGAGGAUUGAGCAUCA
# B17: chr10:92050442:92050545:-|3pUTR|ENSG00000107864|unk|FALSE|unique (ssRNA)
# RNA: GGGAGUUCUACAGUCCGACGAUCAUGAAGGCCUGCUAGCACUAGCGUGGACAUUUUUCUAGCAUUCACCCUUGGGCUGCAGAUAGUAAUAUAUAAACACACACAAUGAUUGCAAGACUAUGUAAAUCUUUUUUUAAUCUUCUUCAACAGAGGAUUGAGCAUCA
# B18: chr3:151442983:151443884:-|CDS|ENSG00000152580|control|control|control (ssRNA)
# RNA: GGGAGUUCUACAGUCCGACGAUCUGGUUCGGAGCGAAGAGUAGUAAUGCUUACAAUGGAAGAGCGAGUGACCAGCCCCAGGAUAGAAGCUGCAUCCCAGAAAAGGACUGAAGUGAAUUUUGGGGACAAAUUACUACUGAACUGCAACAGAGGAUUGAGCAUCA
# B19: chr9:128633378:128633479:+|3pUTR|ENSG00000197694|msi1|FALSE|bound_elsewhere (ssRNA)
# RNA: GGGAGUUCUACAGUCCGACGAUCCUUGCUGCAUGUCCGCUCCUCUGUGUGCUCUCACUUUCCACUGUAACCUUAAGCCUGCUUAGCUUGGAAUAAGACUUAGGAGAAAAUGGUGCUUCACUAACCCGCUUCCGGUCCAGUCACCAACAGAGGAUUGAGCAUCA
# B20: chr15:59081107:59081211:+|CDS|ENSG00000157450|unk|FALSE|unique (ssRNA)
# RNA: GGGAGUUCUACAGUCCGACGAUCUUCUCAAAUAUCUUCUCAUGCAACAUCUCAUCCUGUGGCACCCCCACCACCAACUCACUUAGCCAGUACAGCUGCACCAAUCCCUCAGCAUCUUCCUCCUACACACCAGCCAAUUUCGCACAACAGAGGAUUGAGCAUCA
# B21: chr8:6521177:6521410:-|CDS|ENSG00000091879|control|control|control (ssRNA)
# RNA: GGGAGUUCUACAGUCCGACGAUCUCAGCUACAGGUGUUAGUAUCCAAGCAAAAUUCCAUCAUUGAAGAACUAGAAAAAAAAAUAGUGACUGCCACGGUGAAUAAUUCAGUUCUUCAGAAGCAGCAACAUGAUCUCAUGGAGACCAACAGAGGAUUGAGCAUCA
# B22: chr9:26904889:26904990:-|3pUTR|ENSG00000137055|msi1|total|mutant (ssRNA)
# RNA: GGGAGUUCUACAGUCCGACGAUCAUAAUUUCUUGAUUUGUCAUUUAUAAAUCCUAAAGUAUAUUUGUUUAAUGGCCUAUUUUCCGAUGAAGAAAAAGCCAGUUGGUAAGCUGUGUCCGUCAUGUAUCAGUUCAGACAGACGAGCAACAGAGGAUUGAGCAUCA
# Biological target: MSI1 full-length (mouse, UniProt Q61474 1-362)
# Assay: nsRBNS (natural sequence RNA bind-n-seq); RBNS binding buffer (assumed for nsRBNS): 25 mM Tris pH 7.5, 150 mM KCl, 3 mM MgCl2, 0.01% Triton X-100, 500 ug/ml BSA, 20 U/ml SUPERase-In, 4 C; UNK is unkempt and MSI1 is Musashi-1; names of the RNAs are library labels; protein concentration not given here; high values mean tight binding
# UniProt Q61474, sequence (Q61474 whole entry): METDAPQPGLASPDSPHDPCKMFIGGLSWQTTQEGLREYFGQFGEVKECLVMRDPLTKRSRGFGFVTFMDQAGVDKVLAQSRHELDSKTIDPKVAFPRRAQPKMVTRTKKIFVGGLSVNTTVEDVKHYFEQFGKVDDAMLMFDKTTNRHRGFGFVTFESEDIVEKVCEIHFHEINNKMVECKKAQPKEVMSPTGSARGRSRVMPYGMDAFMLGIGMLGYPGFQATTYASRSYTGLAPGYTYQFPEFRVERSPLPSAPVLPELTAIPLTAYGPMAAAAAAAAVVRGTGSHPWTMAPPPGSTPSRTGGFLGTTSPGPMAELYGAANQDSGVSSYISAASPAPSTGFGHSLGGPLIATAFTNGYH
row,Binder,binding signal
1,B1,0.531 enrichment R
2,B2,0.793 enrichment R
3,B3,0.643 enrichment R
4,B4,0.252 enrichment R
5,B5,0.454 enrichment R
6,B6,0.497 enrichment R
7,B7,0.434 enrichment R
8,B8,0.859 enrichment R
9,B9,0.455 enrichment R
10,B10,1.5 enrichment R
11,B11,0.353 enrichment R
12,B12,0.207 enrichment R
13,B13,0.395 enrichment R
14,B14,1.86 enrichment R
15,B15,0.196 enrichment R
16,B16,0.459 enrichment R
17,B17,2.45 enrichment R
18,B18,0.498 enrichment R
19,B19,0.57 enrichment R
20,B20,0.876 enrichment R
21,B21,0.674 enrichment R
22,B22,0.779 enrichment R

# Source: paper PMC12136788
